Test results reported in article PMC4822036, “Rab35 GTPase couples cell division with initiation of epithelial apico-basal polarity and lumen opening” (Nature Communications, 2016).
These are yes or no findings as the source states them, for the method shown. For part of these data: Binding seen in cells or lysates may run through a third protein. Some binding calls cover weakened binding; strength is not graded here. For part of these data: Tags and fused reporters may be left off the sequences shown.

Amino acid sequences for entries named in this document (tags omitted). A change or cut given only in a name is not applied to a line headed by its entry. Chains listed by the source or under a name are the forms on record and can include a tag or linker. Residues count along the entry.
UniProt Q15286: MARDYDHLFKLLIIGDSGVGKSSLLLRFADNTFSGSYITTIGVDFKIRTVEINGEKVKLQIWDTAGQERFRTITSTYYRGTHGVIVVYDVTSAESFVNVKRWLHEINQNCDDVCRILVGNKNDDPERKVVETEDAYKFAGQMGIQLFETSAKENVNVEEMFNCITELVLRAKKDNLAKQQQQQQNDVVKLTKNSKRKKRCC
LexA-human wild-type Rab35 K173 (aa 1–173): residues 1-173 of Q15286
LexA-human Rab35^S22N K173 (aa 1–173) (Q15286, form named): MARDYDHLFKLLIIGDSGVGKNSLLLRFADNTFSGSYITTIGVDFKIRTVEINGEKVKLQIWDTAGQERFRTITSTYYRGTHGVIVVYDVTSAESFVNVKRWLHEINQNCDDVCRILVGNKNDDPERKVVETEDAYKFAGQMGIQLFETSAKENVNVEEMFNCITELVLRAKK
LexA-human Rab35^Q67L K173 (aa 1–173) (Q15286, form named): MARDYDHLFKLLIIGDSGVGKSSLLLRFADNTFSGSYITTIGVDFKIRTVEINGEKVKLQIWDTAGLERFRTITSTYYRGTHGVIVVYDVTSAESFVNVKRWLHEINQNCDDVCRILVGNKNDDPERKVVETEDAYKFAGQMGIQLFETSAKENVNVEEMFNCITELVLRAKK
UniProt P62491: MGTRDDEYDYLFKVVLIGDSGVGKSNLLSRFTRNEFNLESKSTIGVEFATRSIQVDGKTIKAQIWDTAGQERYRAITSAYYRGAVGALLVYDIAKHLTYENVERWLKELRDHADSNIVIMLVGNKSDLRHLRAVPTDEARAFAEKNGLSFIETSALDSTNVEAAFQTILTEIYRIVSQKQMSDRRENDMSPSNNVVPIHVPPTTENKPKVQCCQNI
LexA-human Rab11^Q70L Y173 (aa 1–173) (P62491, form named): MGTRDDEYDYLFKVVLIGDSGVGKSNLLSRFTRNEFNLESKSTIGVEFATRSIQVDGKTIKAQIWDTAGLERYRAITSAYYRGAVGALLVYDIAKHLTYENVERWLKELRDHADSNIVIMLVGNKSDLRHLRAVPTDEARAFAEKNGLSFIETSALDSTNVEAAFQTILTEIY
UniProt P61006: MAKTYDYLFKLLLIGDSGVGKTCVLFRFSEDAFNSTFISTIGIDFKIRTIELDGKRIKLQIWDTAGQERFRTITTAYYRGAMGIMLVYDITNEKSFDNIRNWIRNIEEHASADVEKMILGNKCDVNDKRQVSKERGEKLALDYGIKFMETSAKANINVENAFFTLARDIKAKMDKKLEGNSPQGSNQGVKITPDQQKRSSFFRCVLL
LexA-human Rab8A^Q67L (aa 1–183) (P61006, form named): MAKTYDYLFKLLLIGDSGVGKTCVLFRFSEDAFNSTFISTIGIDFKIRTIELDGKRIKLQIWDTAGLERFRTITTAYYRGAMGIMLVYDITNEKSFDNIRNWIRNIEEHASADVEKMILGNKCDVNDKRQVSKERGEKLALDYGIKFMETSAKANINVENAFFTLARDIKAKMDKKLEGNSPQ
UniProt P51159: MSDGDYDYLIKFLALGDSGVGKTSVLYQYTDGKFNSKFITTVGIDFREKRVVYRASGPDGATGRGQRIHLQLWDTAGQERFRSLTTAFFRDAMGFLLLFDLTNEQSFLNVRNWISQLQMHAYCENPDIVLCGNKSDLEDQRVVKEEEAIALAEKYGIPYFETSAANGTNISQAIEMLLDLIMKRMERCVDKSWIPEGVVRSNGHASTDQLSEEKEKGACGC
LexA-human Rab27A^Q78L (aa 1–201) (P51159, form named): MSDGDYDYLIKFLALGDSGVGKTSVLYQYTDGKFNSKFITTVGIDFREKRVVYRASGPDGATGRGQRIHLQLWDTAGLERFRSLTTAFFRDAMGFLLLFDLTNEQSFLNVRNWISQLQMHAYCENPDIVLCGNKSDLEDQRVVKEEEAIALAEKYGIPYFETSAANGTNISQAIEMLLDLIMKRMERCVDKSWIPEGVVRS

Tests used:
[1] = target: T1, GST–PODXL V496A Y500A (aa 476–551) (rabbit) (UniProt Q28645); test: pull-down; GST–PODXL tail or GST on glutathione Sepharose 4B beads incubated with 6xHis-Rab proteins exchanged with 1 mM GDP or 200 μM GTPγS; 25 mM Tris pH 7.5, 50 mM NaCl, 10 mM MgCl2, 0.1% Triton X-100, 0.2% BSA; western blot with anti-6xHis; both purified
T1 sequence: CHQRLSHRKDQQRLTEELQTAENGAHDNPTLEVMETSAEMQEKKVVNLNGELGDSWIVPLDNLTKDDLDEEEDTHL

[2] = target: LexA-human wild-type Rab35 K173 (aa 1–173) (human) (UniProt Q15286); test: two-hybrid; S. cerevisiae L40 reporter strain co-transformed with pGAD-rabbit PODXL (aa 476–551) or pGAD alone and pLex-Rab constructs; growth on medium without histidine indicates an interaction
[3] = target: LexA-human Rab35^S22N K173 (aa 1–173) (human) (UniProt Q15286); test: as above
[4] = target: LexA-human Rab11^Q70L Y173 (aa 1–173) (human) (UniProt P62491); test: as above
[5] = target: LexA-human Rab8A^Q67L (aa 1–183) (human) (UniProt P61006); test: as above
[6] = target: LexA-human Rab27A^Q78L (aa 1–201) (human) (UniProt P51159); test: as above
[7] = target: T2, LexA-human Rab6A^Q72L (aa 1–173) (human) (UniProt P20340); test: as above
T2 sequence: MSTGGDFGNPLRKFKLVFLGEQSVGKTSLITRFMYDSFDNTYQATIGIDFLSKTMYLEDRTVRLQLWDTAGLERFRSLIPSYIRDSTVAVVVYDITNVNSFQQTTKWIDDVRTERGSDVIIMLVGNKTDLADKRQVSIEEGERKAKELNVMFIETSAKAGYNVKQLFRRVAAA

[8] = target: LexA-human Rab35^Q67L K173 (aa 1–173) (human) (UniProt Q15286); test: as above
[9] = target: 3xFlag-tagged Rab11A^Q70L (not stated (human or canine cDNA cloned)) (UniProt P62491); test: co-IP; MDCK cells transfected 24 h with 3xFlag-tagged Rab proteins; lysis in 25 mM Tris pH 7.5, 150 mM NaCl, 10 mM MgCl2, 0.1% Triton X-100; anti-Flag M2 affinity gel 2 h; endogenous PODXL detected by western blot
[10] = target: 3xFlag-tagged Rab8A^Q67L (human) (UniProt P61006); test: as above
[11] = target: 3xFlag-tagged Rab27A^Q78L (human) (UniProt P51159); test: as above
[12] = target: 3xFlag-tagged Rab35^S22N (human) (UniProt Q15286); test: as above
[13] = target: 3xFlag-tagged Rab35^WT (human) (UniProt Q15286); test: as above
[14] = target: 3xFlag-tagged Rab6A^Q72L (human) (UniProt P20340); test: as above
[15] = target: 3xFlag-tagged Rab35^Q67L (human) (UniProt Q15286); test: as above

In the case of “6xHis–Rab35^WT full-length (from UniProt Q15286 1-201)”, the binding [1] is reported as “no binding”.

B1: GST–PODXL WT (aa 476–551) (domain or fragment, rabbit, UniProt Q28645 476-551, looked up)
chain: CHQRLSHRKDQQRLTEELQTVENGYHDNPTLEVMETSAEMQEKKVVNLNGELGDSWIVPLDNLTKDDLDEEEDTHL
notes: The species is not repeated for the GST construct; source: E. coli BL21 pLysS, purified (glutathione Sepharose 4B)
B1 was tested, and the binding [2] was “binds”, the binding [3] was “no binding” and the binding [4] was “no binding”. For the same molecule, the binding [5] was “no binding”, the binding [6] was “no binding” and the binding [7] was “no binding”. The binding [8] was “binds”.

B2: endogenous PODXL (MDCK cells) (protein, UniProt Q52S86 23-571)
chain: HDGTIIAATSPTSGQPSTELPGGKGLITTAKTIQNTDLAITGEKVMSATVSKGPLPGSSNSVSMTLAPTQKNTVIAPDQDEKVSTNPTIATSDSKGIPDLNKSILPSATNSMKPDTPVTQTAGPGAQGNPGTTVSHMTSENTEQTTSQPPPQVKPSSITPALTSIITPTSPRQPSANSTTLKPPESSSESPDKSHTASSSLGTKVVPSSSLYGTSPTRTSSVTFWGGPQSSSGTPPVPAPTPRPAATSSSTPGISSVPGTTSLPSETESLESPSSESPSQPPKLRPTGPPSSGSSGPAASLPDEGPRSSSTQRAATAPRAPSVPSPTSAQGDDRIKCESPGRLTDKMLLLNLTRSGLCAGNNSDDKLITLLCRAAKATFNPAQDQCHIRLVPIQDTQAVAIKEITVQTNLLPRDVYELLKDKWDELKEVGVSNMKLGDQGPPEETEDRFSMPLIITIVCMASFLLLVAALYGCCHQRLSQRKDQQRLTEELQTVENGYHDNPTLEVMETSSEMQEKKVVNLNGELGDSWIVPLDNLAKDDLDEEEDTHL
In the case of B2, the binding [9] is reported as “no binding”, the binding [10] is reported as “no binding” and the binding [11] is reported as “no binding”. The binding [12] was “no binding”, the binding [13] was “binds” and the binding [14] was “no binding”. The binding [15] was “binds”.
